The whole screen tested about 150,000 compounds, of which about 540 (0.36%) showed an effect of 50% or more. Some of the results follow.
These compounds were tested on Plasmodium falciparum (assay: Primary screen in NF54 nanoGlo assay, in single point, at 2uM, 72h; a lower Z score goes with more inhibition). Conditions: timepoint 72 hour.
Type: functional, Erythrocyte

Row | Compound | % Inhibition | Z score
1 | CCN1CCN(C(=O)c2cccc(Nc3c(Oc4ccc(OC)cc4)cnn(-c4cccc(Cl)c4)c3=O)c2)CC1 | 6% | -0.75
2 | C[C@@H](C1CCC1)N(C)C(=O)C1=CCCCO1 | -9% | 1.05
3 | Cn1ccnc1-c1csc(NC(=O)c2cccn2C2CC2)n1 | -1% | 0.06
4 | O=C(NCc1cccs1)c1ccc(N2CCCc3ccccc32)s1 | -7% | 0.88
5 | Cc1nnc(CC(=O)N2CCCc3cc(-c4ccccc4)ccc32)o1 | -7% | 0.81
6 | Oc1cccc(-c2nccn2-c2cccc(-c3ccn[nH]3)c2)c1 | -11% | 1.87
7 | O=C(Nc1ccc(N2CCc3sccc3C2)cc1)c1cnccn1 | 28% | -3.53
8 | Fc1cc(CNC[C@H]2CN(Cc3ccccc3)CCCO2)ccc1OC(F)F | 13% | -2.47
9 | Cc1cc(C)c2nc(-c3cccc(Cl)c3)c(C)c(C(=O)Nc3ccc(Oc4ccc(-c5ccccc5)cc4)cc3)c2c1 | 4% | -0.5
10 | C[C@H](NCCNC(=O)c1ccco1)c1ccc(Br)o1 | -4% | 0.44
11 | O=C(Nc1ccccc1OCc1ccccc1)N1CCC2(CCO2)CC1 | -19% | 2.43
12 | O=S(=O)(c1ccc(F)c(Cl)c1)N1CC[C@H](c2ccc3c(c2)CCO3)C1 | -8% | 1.11
13 | Cc1c(Br)c(C(=O)N(C(C)C)C(C)C)nn1C | -2% | 0.27
14 | Cc1cc(S(=O)(=O)N[C@H]2CC(=O)N(C)C2)c(C)s1 | 3% | -0.53
15 | Cc1oc(-c2[nH]ncc2C(=O)N2CCOCC2)cc1S(=O)(=O)Nc1cccc(F)c1 | -5% | 0.63
16 | COc1cc(C(=O)NCc2cnc(N(C)C)n2C)ccc1Cl | -4% | 0.63
17 | O=C(Cc1c(F)c(F)c(F)c(F)c1F)Nc1ccc2c(c1)OCCCO2 | -8% | 1.52
18 | CCOc1cccc(CC(=O)NCc2ccc3c(c2)CCN3C(=O)c2ccc(F)cc2)c1OCC | -12% | 1.11
19 | Cc1noc2ncc(C(=O)N3CCN(CCC(C)C)CC3)cc12 | 2% | -0.37
20 | CC(C)CNC(=O)[C@@H]1Cc2[nH]cnc2C2(CCN(Cc3cccs3)CC2)N1 | 2% | -0.44
21 | CN(CC1CC(F)(F)CN1C(=O)OC(C)(C)C)[C@@H]1COC[C@H]1O (some centres undefined) | -5% | 0.64
22 | CC[C@](C)(NCc1ccco1)c1nnnn1-c1ccc(OC)c(OC)c1 | -14% | 1.98
23 | Cn1cc(C(=O)O)c(-c2ccc(NS(=O)(=O)c3cccc(F)c3)cc2)n1 | -1% | 0.21
24 | c1ccc2[nH]c(-c3nc(-c4ccc(-c5csc(C6CC6)n5)cc4)no3)cc2c1 | -6% | 0.92
25 | Cc1ccc(Br)cc1NC(=O)CNS(=O)(=O)C1CC1 | -18% | 1.59
26 | COc1ccc(N2C(=O)N(Cc3ccncc3)c3ccccc3S2(=O)=O)cc1OC | 20% | -2.34

Row | Compound | % Inhibition | Z score
27 | CCOc1cc(CNC(=O)c2ccccc2NC(=O)c2nsc3ccccc23)ccc1OC | -12% | 2.05
28 | Cc1ccc(-c2nc(C)c(-c3cc[nH]n3)s2)cc1 | 30% | -3.91
29 | N#Cc1cnc(N2CC(C3CC3)C2C2CC2)cn1 (centres undefined) | 2% | -0.3
30 | NS(=O)(=O)c1ccc(CNC(=O)c2[nH]nc3c2CCCCC3)cc1 | -1% | 0.1
31 | O=C(NCc1ccccn1)c1ccc2c(c1)nc1n2CCCC1 | 11% | -2.03
32 | Cc1c(Cl)ccc2c(=O)c3c([nH]c12)CCN(CC(=O)Nc1ccc2c(c1)OCCO2)C3 | -1% | 0.19
33 | CN(C)c1c(F)c(F)c2cc3c(C(C)(C)C)nn(C)c3nc2c1F | 36% | -1.61
34 | O=C(c1ccccc1)N1C[C@@H]2COCCN2C2(C1)CN(C1CCCCC1)C2 | 2% | -0.38
35 | CC(C)(C)C(=O)CNC(=O)c1ccoc1 | -7% | 1
36 | O=C(NC1(CN2CCCC2)CCCCC1)c1cccc(-c2ncccn2)c1 | -7% | 1.16
37 | O=C1c2ccccc2N[C@H](c2cccc3ccccc23)N1CCc1ccccc1 | -19% | 3.35
38 | Cc1ccc(C)c2c1NC(=O)[C@H]2CC(=O)N(C)Cc1[nH]nc2c1CCC2 | 8% | -0.75
39 | CCOc1cccc(CNC(=O)[C@]2(C)CCN(C)C2=O)c1 | -9% | 1.1
40 | CCC[C@]1(C(=O)O)CCCN(Cc2ccc(CC)cn2)C1 | 1% | -0.23
41 | Cc1cc(Oc2cnn(C)c(=O)c2Nc2cccc(C(=O)NCc3ccc(F)cc3)c2)ccc1Cl | -19% | 1.84
42 | CCOC(=O)N1CCC(NC(=O)c2cc(N)cc3nc(-c4ccccc4OC)n(C)c23)CC1 | 3% | -0.3
43 | O=C(Cn1c(-c2cccs2)cc2ccccc21)N1CCN(c2ccccc2F)CC1 | -4% | 0.53
44 | Cn1c(CNC2CCCC(S(C)(=O)=O)C2)cc2ccccc21 (centres undefined) | 0% | -0.03
45 | Cc1ccc(N2CCN(c3nccn4c(=O)n(CC(=O)Nc5ccc(C)cc5Cl)nc34)CC2)cc1 | -1% | 0.08
46 | Cc1ccc(S(=O)(=O)Nc2ncccc2N2CCOCC2)o1 | 17% | -2.18
47 | O=c1sc2ccccc2n1COc1ccccc1 | -11% | 1.59
48 | Cc1ccc(C(F)(F)F)c(NC(=O)N2CCNC(=O)C[C@@H]2C)c1 | -8% | 1.48
49 | COc1cccc2c1C(=O)N1C[C@H](N(C)C)C[C@H]1C(=O)N2 | -16% | 2.09
50 | CC(C)COc1ncccc1C(=O)N(c1ccccc1)[C@H]1CCOC1 | -6% | 1.13
51 | CCCc1ccc(CN2CCn3nc(CNS(C)(=O)=O)cc3C2)o1 | -4% | 0.43
52 | CC(C)Cc1nc2cc(NS(=O)(=O)N(C)C)cc(C(=O)N3CCC[C@H](C(N)=O)C3)c2n1C | -9% | 1.36

— ChEMBL document CHEMBL4888484, “Replenishing the malaria drug discovery pipeline: Screening and hit evaluation of the MMV Hit Generation Library 1 (HGL1) against asexual blood stage Plasmodium falciparum ,using a nano luciferase reporter read-out” (2022)
